{"source": "PubChem BioAssay (NCATS)", "key": {"[1]": {"assay": "qHTS of pediatric cancer cell lines to identify multiple opportunities for drug repurposing: Primary screen for Saos-2 cells (AID 1347097); further: nearly all actives have a fitted effect of over 40% in size; on activity change, negative = cytotoxic: on the % scale 0 is the no-effect control and ±100 the full control effect", "how_it_was_run": "(§1)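 Phenotypic viability qHTS, 48 h compound exposure, CellTiter-Glo luminescence read-out; multi-concentration dosing so that potency and efficacy derive directly from the primary screen's curves.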"}, "[2]": {"assay": "qHTS of pediatric cancer cell lines to identify multiple opportunities for drug repurposing: Primary screen for SK-N-SH cells (AID 1347098)", "conditions": "SK-N-SH viability, CellTiter-Glo luminescence, 48 h; activity change, negative = cytotoxic: at 57 µM (top of the series)", "how_it_was_run": "(§2)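 Cells (500-1,000/well) rested 5 h, then received compounds for 48 h; metabolically active cells were measured by CellTiter-Glo luminescence. Final concentrations spanned up to 46 µM (MIPE, 11-point) or 0.59 nM-46 µM (NPC, 8-point) in primary screens, 11-point in follow-ups.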"}, "[3]": {"assay": "qHTS of pediatric cancer cell lines to identify multiple opportunities for drug repurposing: Primary screen for NB1643 cells (AID 1347099)", "how_it_was_run": "as §1"}, "[4]": {"assay": "qHTS of pediatric cancer cell lines to identify multiple opportunities for drug repurposing: Primary screen for LAN-5 cells (AID 1347100)", "conditions": "LAN-5 neuroblastoma viability, CellTiter-Glo luminescence, 48 h; activity change, negative = cytotoxic: at 46 µM (top of the series)", "how_it_was_run": "(§3)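 Cells (500-1,000/well) in growth media were settled 5 h at 37 degrees C, then given compounds for 48 h. Viability was read as CellTiter-Glo luminescence. Primary runs used MIPE at 11 points (0.78 nM-46 µM) and NPC at 8 points (0.59 nM-46 µM); follow-ups used 11 points.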"}, "[5]": {"assay": "qHTS of pediatric cancer cell lines to identify multiple opportunities for drug repurposing: Primary screen for BT-12 cells (AID 1347101)", "how_it_was_run": "as §2"}, "[6]": {"assay": "qHTS of pediatric cancer cell lines to identify multiple opportunities for drug repurposing: Primary screen for Rh18 cells (AID 1347102)", "conditions": "Rh18 rhabdomyosarcoma viability, CellTiter-Glo luminescence, 48 h; activity change, negative = cytotoxic: at 46 µM (top of the series)", "how_it_was_run": "as §3"}, "[7]": {"assay": "qHTS of pediatric cancer cell lines to identify multiple opportunities for drug repurposing: Primary screen for MG 63 (6-TG R) cells (AID 1347105)", "conditions": "MG 63 (6-TG R) viability, CellTiter-Glo, 48 h; activity change, negative = cytotoxic: at 46 µM (top of the series)", "how_it_was_run": "as §1"}, "[8]": {"assay": "qHTS of pediatric cancer cell lines to identify multiple opportunities for drug repurposing: Primary screen for control Hh wild type fibroblast cells (AID 1347106)", "how_it_was_run": "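Viability after 48 h compound treatment at 37C, 500-1,000 cells/well, read as ATP luminescence with CellTiter-Glo. Primary screens used 11-point (MIPE, 0.78 nM-46 µM) or 8-point (NPC, 0.59 nM-46 µM) final concentrations; follow-up screens used 11-point dilutions.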"}, "[9]": {"assay": "qHTS of pediatric cancer cell lines to identify multiple opportunities for drug repurposing: Primary screen for RD cells (AID 1347104)", "how_it_was_run": "as §1"}, "[10]": {"assay": "qHTS of pediatric cancer cell lines to identify multiple opportunities for drug repurposing: Primary screen for OHS-50 cells (AID 1347103)", "how_it_was_run": "as §2"}}, "note": "The shares of active, inactive and inconclusive entries below differ from those in the screen. Potencies of inconclusive entries are left out as doubtful fits. Activity calls are given as the source filed them. The call rests on the fitted dose curve; in most records, active means well fitted curve in the direction sought with a large enough effect; inconclusive means small, poorly fitted or top-dose-only effect, or another doubt; inactive means no such curve, though single readings can be large; an effect the other way counts as inactive or inconclusive. Potency means the concentration at half of the fitted maximal effect; tags describe the fitted curve by direction and shape."}
{"smiles": "CCc1cnn2c(NCc3ccc[n+]([O-])c3)cc(N3CCCC[C@@H]3CCO)nc12", "values": [{"measurement": "Potency", "setting": "[1]", "value": "active: 0.0235 µM"}, {"measurement": "Potency", "setting": "[2]", "value": "active: 0.0383 µM"}, {"measurement": "Potency", "setting": "[3]", "value": "inconclusive [cytotoxic, full curve, poor fit]"}, {"measurement": "Potency", "setting": "[4]", "value": "inconclusive [cytotoxic, full curve]"}, {"measurement": "Potency", "setting": "[5]", "value": "active: 0.0432 µM"}, {"measurement": "Potency", "setting": "[6]", "value": "inconclusive [cytotoxic, full curve, poor fit]"}, {"measurement": "Potency", "setting": "[7]", "value": "inconclusive [cytotoxic, full curve]"}, {"measurement": "Potency", "setting": "[8]", "value": "inconclusive [cytotoxic, full curve, poor fit]"}]}
{"smiles": "CCCc1ncc(C[n+]2ccccc2C)c(N)n1", "values": [{"measurement": "Potency", "setting": "[1]", "value": "inactive"}]}
{"smiles": "CC(C)(O)CC(=O)NCCn1ccc2ncnc(Nc3ccc(Oc4cccc(C(F)(F)F)c4)c(Cl)c3)c21", "values": [{"measurement": "Potency", "setting": "[1]", "value": "inconclusive [cytotoxic, single point]"}, {"measurement": "Potency", "setting": "[2]", "value": "active: 1.21 µM"}, {"measurement": "Potency", "setting": "[3]", "value": "inconclusive [cytotoxic, single point]"}, {"measurement": "Potency", "setting": "[4]", "value": "inconclusive [cytotoxic, single point]"}, {"measurement": "Potency", "setting": "[5]", "value": "inconclusive [cytotoxic, single point]"}, {"measurement": "Potency", "setting": "[6]", "value": "inconclusive [cytotoxic, single point]"}, {"measurement": "Potency", "setting": "[9]", "value": "active: 18.7 µM"}, {"measurement": "Potency", "setting": "[7]", "value": "inconclusive [cytotoxic, single point]"}]}
{"smiles": "CC(=O)OC[C@@H]1O[C@@H](n2ccc(=O)[nH]c2=O)[C@H](OC(C)=O)[C@H]1OC(C)=O", "values": [{"measurement": "Potency", "setting": "[1]", "value": "inconclusive [cytotoxic, partial curve, poor fit]"}, {"measurement": "Potency", "setting": "[2]", "value": "inconclusive [cytotoxic, partial curve]"}, {"measurement": "Potency", "setting": "[3]", "value": "inconclusive [cytotoxic, single point]"}, {"measurement": "Potency", "setting": "[4]", "value": "inconclusive [cytotoxic, partial curve, poor fit]"}, {"measurement": "Potency", "setting": "[7]", "value": "inactive"}]}
{"smiles": "CC(=O)O[C@]1(C(C)=O)CC[C@H]2[C@@H]3C[C@H](C)C4=CC(=O)CC[C@]4(C)[C@H]3CC[C@@]21C", "values": [{"measurement": "Potency", "setting": "[1]", "value": "inconclusive [cytotoxic, single point]"}, {"measurement": "Potency", "setting": "[2]", "value": "inconclusive [cytotoxic, single point]"}, {"measurement": "Potency", "setting": "[3]", "value": "inactive"}, {"measurement": "Potency", "setting": "[4]", "value": "inconclusive [cytotoxic, partial curve]"}, {"measurement": "Potency", "setting": "[5]", "value": "inconclusive [cytotoxic, single point]"}, {"measurement": "Potency", "setting": "[6]", "value": "inactive"}, {"measurement": "Potency", "setting": "[10]", "value": "active: 24.6 µM"}, {"measurement": "Potency", "setting": "[9]", "value": "inconclusive [cytotoxic, partial curve, poor fit]"}]}
{"smiles": "CCn1cc(C(=O)O)c(=O)c2cnc(N3CCCC3)nc21", "values": [{"measurement": "activity change, negative = cytotoxic", "setting": "[1]", "value": "inactive: 0.0364% [at 9.22 µM]"}, {"measurement": "Potency", "setting": "[2]", "value": "inconclusive [cytotoxic, single point]"}]}
{"smiles": "C[C@@H]1C(=O)O[C@H]2CC34[C@H]5C[C@@H](C(C)(C)C)C36[C@H](OC(=O)[C@@H]6O)O[C@@]4(C(=O)O5)[C@]21O", "note": "(some centres not stated)", "values": [{"measurement": "Potency", "setting": "[1]", "value": "inconclusive [cytotoxic, partial curve]"}, {"measurement": "Potency", "setting": "[2]", "value": "inconclusive [cytotoxic, single point]"}, {"measurement": "Potency", "setting": "[3]", "value": "inconclusive [cytotoxic, single point]"}, {"measurement": "Potency", "setting": "[4]", "value": "active: 13.2 µM"}, {"measurement": "Potency", "setting": "[5]", "value": "inconclusive [cytotoxic, partial curve, poor fit]"}]}
{"smiles": "CCN(CC)CCNc1ccc(CO)c2sc3ccccc3c(=O)c12", "values": [{"measurement": "Potency", "setting": "[1]", "value": "inconclusive [cytotoxic, single point]"}, {"measurement": "Potency", "setting": "[3]", "value": "active: 16.8 µM"}, {"measurement": "Potency", "setting": "[5]", "value": "active: 13.8 µM"}, {"measurement": "Potency", "setting": "[6]", "value": "inconclusive [cytotoxic, single point]"}, {"measurement": "Potency", "setting": "[8]", "value": "active: 18.8 µM"}]}
{"smiles": "OC1CCC(Nc2ncc3nc(Nc4c(F)cc(F)cc4F)n([C@@H]4CCOC4)c3n2)CC1", "note": "(some centres not stated)", "values": [{"measurement": "Potency", "setting": "[1]", "value": "inconclusive [cytotoxic, partial curve]"}, {"measurement": "Potency", "setting": "[3]", "value": "inconclusive [cytotoxic, single point]"}, {"measurement": "Potency", "setting": "[4]", "value": "inconclusive [cytotoxic, partial curve]"}, {"measurement": "Potency", "setting": "[5]", "value": "inactive"}, {"measurement": "Potency", "setting": "[10]", "value": "inconclusive [cytotoxic, single point]"}, {"measurement": "Potency", "setting": "[9]", "value": "inconclusive [cytotoxic, partial curve]"}]}
{"smiles": "CCOC(=O)[C@H]1O[C@H]1C(=O)N[C@@H](CC(C)C)C(=O)NCCC(C)C", "values": [{"measurement": "Potency", "setting": "[1]", "value": "inconclusive [cytotoxic, partial curve]"}, {"measurement": "Potency", "setting": "[3]", "value": "inconclusive [cytotoxic, full curve]"}, {"measurement": "Potency", "setting": "[4]", "value": "inconclusive [cytotoxic, single point]"}, {"measurement": "Potency", "setting": "[9]", "value": "inconclusive [cytotoxic, single point]"}]}
